Measured values: the supplement of paper PMC12632987
The full ranking holds about 4,500 sequences; the median of “median log2 fold change of GCK-ALFA target abundance (FLAG IP / Myc IP barcode read proportion)” is about 0.078, and the lowest 2% start at about -0.6. This is one part of the list.

B1: GBRAP_128_3195 (protein)
chain: VSPAAVAALRALAERVIATKSDADIDAFAAAVAAALKAGEITLDELEEIVAALGEGLDADTLARVADALRAALADVGADARATALGVLGEKIYEKEEEAE
B2: GBRAP_160_4265 (protein)
chain: SEETKKLIEDLDKDKEEILELVDEISSEELKTFAVVSLGSHLMEAIDLGVVTDEEEDELLKIIDDLEKELTANKNAPKEVKKEIITKHYEKFKELLKKSK
B3: GBRAP_196_5416 (protein)
chain: KYLEEIKELEKESEEEVKDIELSDWTIVVNFTPENLEEEAEKTAEIAKDLGNPEIVIVHDGTLEEMLEALKLLREKLKEKGVVSKISVDSRAREEAEEKA
B4: GBRAP_74_6545 (protein)
chain: NAAEADAIIATLETGSREERRAALESIPLDFSDEDLERLLLAVARLAIEAAEAGDEELLEAATEALVRLYDRLAGKPLSPETDAALVAALAAAVEAEKKR
B5: GBRAP_184_5239 (protein)
chain: MVLERTIKAENEEELREKMKEVMEEAEKKGAKVRLLIEVEKLTREKAETLAEMIKEMAAKGLLELVGVVSSEPISEEIVDLLVEAADEAGVKLVIAEPEI
B6: GBRAP_55_6431 (protein)
chain: SEDDEDTRLAAETLLELAVANVDDPEKLAEAVDRLMEVAKDKEVTATASPLPKEEAEKIYEKLKKELEKAAKEHGLEVKVELIYDEKTGTASIKVTVKPK
B7: GBRAP_160_4718 (protein)
chain: SEAVEEAIREVEEALREVAALRDEMTADELANLVETLIGSTLMELLDEGKVNDELEETLREIADRAAAVVRATYDAPREVFEAALEEVAREGRERLERLS
B8: GBRAP_160_4787 (protein)
chain: MERVRKASELLREALEEALELSEGETPEERVNIFDVEIGAAIMELRELGLLNDEEEEVLAEVRDRLVAEIRANPDLTPEELRALAEEAVEEFERRLKELE
B9: GBRAP_166_4917 (protein)
chain: SMEERVEEAKKRLEKVIEEGKADPSMTDEQITVEMAYELAEILEEIDDREEKLAVVRMGLELAKENGLDPLRLARLTVSLSDFDDEERDEVDEIAEEILK
B10: GBRAP_125_2993 (protein)
chain: SEEEDLADLARLLRALGFDDEDVAEAVELARRHGIRGTLYAALKALGWDELADLVAQLSEEETREALRRVAAELAARPDLTPEEVRALLLEVLRAILAER
B11: GBRAP_11_2829 (protein)
chain: KKEKLKELAEKAKAVADQLAALIASGAPTQAELDALLAKAKALLKETKEFGDEALAKEAEILVEEIEAAIADPATRQQHLQEALAAARVLEGQYLLLYEE
B12: GBRAP_95_7034 (protein)
chain: EDDKLALESALEVAVAAAELGDEEAAARALKEALELLKKAGKVKLDPELLKETIEVIREVGVKKLPKEEVLELLELLKESAETEEVKKLAEEAIEEVKKR
B13: GBRAP_184_5252 (protein)
chain: KVLERTIEAENVEELKEKMAEINKEALATGADVIIELKAKEVTKEMIEALFNSIKELKAKGYTGKVTVGIDADLSEEMIDYAIELADEAGVNLVVALPEE
B14: GBRAP_184_5100 (protein)
chain: ATYEAVVEAATAEEAIAQLEEAVAEAAAAGAALNVLLKGEGLSAEELVEIVRALGAAAAAAGIPRVTLGIDTPVTEEDADKLIAAADAAGIRLVLALSEE
B15: GBRAP_137_3622 (protein)
chain: KKVTITFYEEDGVAIAEITADTSVDKEKVLALVEEVAEEHGVQLVEALVEPDEPLVLYLVGTPEQVIAAVKDLIERLKSELGIEVVLESEGAEELVEEVK
B16: GBRAP_74_6523 (protein)
chain: MEEKLKELKEAAEAGDVEKAVELLREIIETGDLETIEEAARIMVEFVEKNLEKLTPEELELLADALAELADELMERGGDSEVINAVATAAVRLEEALAAK
B17: GBRAP_160_4771 (protein)
chain: SEELKKLKKEVKEIFEEYIKLLKEVPQEEALTIVNGALGEVLMEVMSSDAVSDELEEEIGKILDEAEKEAEKNKDAPVEVFIKILKEAKEKILELIEKEI
B18: GBRAP_184_5236 (protein)
chain: KTLDVTVKAKNEEELKEKLEEVRKKAEEEGAKVNLIVEVEELTEEKVKVLTEMIKEMAKKGLLTLVEVESSTPIKEEHIDKLVEAADEAGVKLVIAEPDE
B19: GBRAP_184_5261 (protein)
chain: MVLERTIEAKNVEELRAKLAEVKAEALATGADVIIHLKVEKLTKEMIDALFAEIEALRAAGYTGKVTIGIDAEVTEEMVDYILEKADEAGVNVTIALSEE
B20: GBRAP_160_4263 (protein)
chain: SEELEELIKDLEEDREEILSLIDEISAEEAKTFAVVELGSHLLEAIDLEIVTDEEEEELAKIIDDLEAELKANENASKEEIKAIITKHYDKFKEILEKSK
B21: GBRAP_125_3015 (protein)
chain: SREELAAAMGRIARALGFSEGDVAELERLTLEHGVKGTLIALALAEGDEELADLLEKLSEEEVAAVVLEAAAELAAHPDLTPEEVRALLLRLAREALAAS
B22: GBRAP_177_5013 (protein)
chain: SVVEQAEAALDDPEALLALLESLDVSELSREEVLEVIRIAARAIEKHGYREELVNALAKLMVAAMKEHGISEAELFAIVIEEVDADTADKIWEKVLELED
B23: GBRAP_80_6785 (protein)
chain: MEEEIEKKIKEIEKEDPEVAKVVREIVELLREVGVPLEIILELVEDFLDALKLPKETRLKIAKETLKFAEELAEEKDRLSPEDIGRLVLAEALTLIELAE
B24: GBRAP_160_4576 (protein)
chain: SPELEKLIEEINELTEEALEWLEDETYEQRLAIVRVLGGDILLLLEENPAVSDELEDEAAKIWDELIATIDANPDLTAEEIKELVRKATEKIIELIKKEA
B25: GBRAP_160_4524 (protein)
chain: SEHLEKKKELLDEAAEEAIRLIKGESAEQRAVIVDGEFGALAMEFASDPNSTDEEVDVVLDARDELVATILANPDLTDEEVAALIEEARERIKEELEKLH
B26: GBRAP_160_4851 (protein)
chain: SEKLKKMLELIEEAEKFIEELVDEVDIETLAAFFRAEVGEVIYYMETELGASDELLDRIDEIADETVAELLANPDLTPEERKALIRKALEEMREAVKELS
B27: GBRAP_160_4559 (protein)
chain: EEERKKGIEEIKKILEEAIELMKELSPEEALTLARGAFGEVLMLLFSSPVFTDEEIDKAGEIADEAEKALEAALDASREEVVELAKKYAEKLIKELEKLA
B28: GBRAP_128_3514 (protein)
chain: SMEEAVARVDELMAAVGAADAEEARRLTREIVELIAANDDETAEAMADRAIELLPKLSQEKLEIVADTLREQRPSLDPYKANLVADIQVEALNLAVEQEE
B29: GBRAP_128_3164 (protein)
chain: SVEKVKEETEKLMEEIINSSLEEAKKLVEELFELLGKVNDEEREAAVEVIEKNLPKLSKEKLDILADVFREKRPELDPYGQELVNGIIVEALNEAEELEE

Molecular target: GABARAP, O95166
Sequence (O95166 whole entry, the tested form may be a part): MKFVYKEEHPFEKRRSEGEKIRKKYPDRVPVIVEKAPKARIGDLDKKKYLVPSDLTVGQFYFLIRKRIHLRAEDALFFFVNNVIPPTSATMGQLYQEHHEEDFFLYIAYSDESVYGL
Test: median log2 fold change of GCK-ALFA target abundance (FLAG IP / Myc IP barcode read proportion) (log2 ratio); each designed protein is fused to an ALFA-tag nanobody in HEK293 cells to bring the named protein to FLAG-tagged glucokinase (GCK); Myc marks an untargeted standard; higher = target protein stabilised (more abundant)
Conditions: target protein: 3xFLAG-MCP-GCK-ALFA reporter; HEK293 landing pad (RPLP)
Summary of the method: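 Binders fused to an ALFA nanobody were recombined as a library into HEK293 landing-pad cells, which were induced with 2 μg mL^−1 doxycycline and then transfected to express a FLAG-tagged target and a Myc-tagged standard. After 48 h, circular RNA barcodes recovered by anti-FLAG and anti-Myc immunoprecipitation of lysates were reverse transcribed, amplified and sequenced. Each binder's target abundance is the median log2 ratio of FLAG to Myc barcode read proportions, from barcodes present at ≥10^−7 in both replicates, binders carrying ≥3 barcodes per replicate, a 10^−6 pseudocount and pooled replicates.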

First: B1
Second: B2
The “median log2 fold change” value of the first is higher: 0.27 for the first, -0.385 for the second.

Going from B3 to B4, the “median log2 fold change” value falls from 0.451 to -0.222.

B5 and B6 are within 0.2 log units of each other in “median log2 fold change” value: 0.163 for the first, 0.23 for the second.

B7 and B8 are within 0.2 log units of each other in “median log2 fold change” value: 0.095 for the first, 0.0992 for the second.

B9 and B10 are within 0.2 log units of each other in “median log2 fold change” value: 0.0707 for the first, 0.00558 for the second.

B11 and B12 are within 0.2 log units of each other in “median log2 fold change” value: 0.197 for the first, 0.352 for the second.

B13 and B14 are within 0.2 log units of each other in “median log2 fold change” value: -0.0723 for the first, -0.0775 for the second.

Compared with B15, B16 is higher in “median log2 fold change” value: -0.288 for the first, 0.153 for the second.

First: B17
Second: B18
The “median log2 fold change” value of the first is lower: -0.271 for the first, -0.0251 for the second.

Going from B19 to B20, the “median log2 fold change” value falls from 0.25 to -0.132.

Compared with B21, B22 is higher in “median log2 fold change” value: -0.0109 for the first, 0.19 for the second.

Going from B23 to B24, the “median log2 fold change” value falls from 0.222 to -0.142.

Going from B25 to B26, the “median log2 fold change” value falls from -0.108 to -0.387.

B27 and B28 are within 0.2 log units of each other in “median log2 fold change” value: 0.0897 for the first, 0.176 for the second.

With B29 the “median log2 fold change” value was 0.388.
